Measured values as given in US20240417463A1 (ADAGENE PTE, published 2024).

Key:
[1] = target: T1, human CD47 on the cell surface (CEM, Raji and other human tumor cells, human RBCs) (human, UniProt Q08722); test: cell-based or functional assay
[2] = target: T2, hCD47-ECD/Fc protein (Sinobiological) (human, UniProt Q08722 partial chain, biotinylated in the Octet assay, sites not stated); test: ELISA, coated hCD47-ECD/Fc
T2 construct: extracellular domain; Bought protein; also called human CD47-Fc antigen; recombinant hCD47-ECD/Fc; not shown: Fc part of the bought fusion protein

[3] = target: T3, cynoCD47-ECD/His protein (Sinobiological) (cynomolgus monkey, UniProt A0A2K5X4H8 19-141); test: ELISA, coated cynoCD47-ECD/His
T3 construct: Bought protein; also called cynomolgus monkey CD47; Monkey CD47

[4] = target: T1, human CD47 on the cell surface (CEM, …); test: flow cytometry, CEM cells, batch 1
[5] = target: T1, human CD47 on the cell surface (CEM, …); test: flow cytometry, CEM cells, batch 2
[6] = target: T2, hCD47-ECD/Fc protein (Sinobiological); test: ELISA, coated hCD47-ECD/Fc, batch 1
[7] = target: T2, hCD47-ECD/Fc protein (Sinobiological); test: ELISA, coated hCD47-ECD/Fc, batch 2
[8] = target: T2, hCD47-ECD/Fc protein (Sinobiological); test: ELISA, coated hCD47-ECD/Fc, batch 3
[9] = target: T1, human CD47 on the cell surface (CEM, …); test: flow cytometry, Raji cells, batch 1
[10] = target: T1, human CD47 on the cell surface (CEM, …); test: flow cytometry, Raji cells, batch 2
[11] = target: T1, human CD47 on the cell surface (CEM, …); test: flow cytometry, Raji cells, batch 3
[12] = target: T1, human CD47 on the cell surface (CEM, …); test: flow cytometry, human RBCs, batch 1
[13] = target: T1, human CD47 on the cell surface (CEM, …); test: flow cytometry, human RBCs, batch 2
[14] = target: T2, hCD47-ECD/Fc protein (Sinobiological); test: BLI (Octet RED96), biotin-hCD47-ECD/Fc on SA sensors, 1:1 model;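 note: test antibodies as analytes, 300 s association then 300 s dissociation in running buffer, with benchmark reference antibodies run as controls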
[15] = target: T2, hCD47-ECD/Fc protein (Sinobiological); test: competition ELISA vs biotin-hSIRPα-ECD/His on coated hCD47-ECD/Fc, experiment 2

T3 sequence (A0A2K5X4H8 entry or part of it limits assumed): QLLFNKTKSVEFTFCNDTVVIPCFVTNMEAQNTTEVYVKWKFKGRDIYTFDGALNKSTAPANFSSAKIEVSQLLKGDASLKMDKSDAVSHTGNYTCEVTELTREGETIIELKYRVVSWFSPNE

EC50 of macrophage phagocytosis of CEM cells, donor A [1]: 0.9 nM
EC50 of macrophage phagocytosis of CEM cells, donor B [1]: 0.54 nM
Max. Phagocytosis (%), donor A [1]: 48%
Max. Phagocytosis (%), donor B [1]: 56.1%
EC50 [2]: 0.41 nM
EC50 [3]: 0.46 nM
EC50 [4]: 0.41 nM
EC50 [5]: 0.51 nM
max MFI [5]: 301000 MFI
EC50 [6]: 0.23 nM
EC50 [7]: 0.35 nM
EC50 [8]: 0.62 nM
EC50 [9]: 0.48 nM
EC50 [10]: 0.48 nM
EC50 [11]: 0.24 nM
max MFI [11]: 145000 MFI
EC50 [12]: 0.37 nM
EC50 [13]: 0.55 nM
max MFI [13]: 18000 MFI
Kd [14]: 0.194 nM
koff [14]: 0.000124 s⁻¹
kon [14]: 642000 M⁻¹ s⁻¹
IC50 [15]: 2.86 nM
B1: TY21446 (antibody, human IgG4 S228P, kappa)
heavy: EVQLVESGGGLVQPGGSLRLSCAASGFTFTNYAIHWVRQAPGKGLEWVSAISGSGSSTYYADSVKGRFTISRDNSKNTLYLQLNSLRAEDTAVYYCARRGSYGFGAFDYWGQGTLVTVSSASTKGPSVFPLAPCSRSTSESTAALGCLVKDYFPEPVTVSWNSGALTSGVHTFPAVLQSSGLYSLSSVVTVPSSSLGTKTYTCNVDHKPSNTKVDKRV[skipping human IgG4 Fc with S228P (EU numbers)]
light: DIQLTQSPSSLSASVGDRVTITCRASQTIGRYLNWYQQKPGKAPKLLIYDASNRATGIPSRFSGSGSGTDFTLTISSLQPEDFATYYCQQRYPWPYTFGQGTKVEIKRTVAAPSVFIFPPSDEQLKSGTASVVCLLNNFYPREAKVQWKVDNALQSGNSQESVTEQDSKDSTYSLSSTLTLSKADYEKHKVYACEVTHQGLSSPVTKSFNRGEC
notes: also called TY21446 parental antibody
